# Results reported in PubChem BioAssay AID488969 (Vanderbilt High Throughput Screening Facility, 2010).
# In all, about 110,000 compounds were measured (“z-score”: median about -0.1, highest 2% from about 2 on). Some of the results follow. Active and inactive are the calls of the source.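 The calls were made as follows: active = z-score in the third read window above 3 or below -3; inactive = the rest.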
# Molecular target: Metabotropic glutamate receptor 8 (Rattus norvegicus) (UniProt P70579)
# Assay: mGluR8 Gi/Go-coupled signaling modulation – cell-based, rat, thallium flux, HTS, primary screen (AID 488969)
# Details: HEK293 rat mGluR8, GIRK (G protein-gated inwardly rectifying potassium channel) thallium flux, FluoZin2; at 10 µM; stronger effect = higher value; submaximal glutamate (EC20) added with thallium
# Sequence of UniProt P70579 (P70579 whole entry, looked up): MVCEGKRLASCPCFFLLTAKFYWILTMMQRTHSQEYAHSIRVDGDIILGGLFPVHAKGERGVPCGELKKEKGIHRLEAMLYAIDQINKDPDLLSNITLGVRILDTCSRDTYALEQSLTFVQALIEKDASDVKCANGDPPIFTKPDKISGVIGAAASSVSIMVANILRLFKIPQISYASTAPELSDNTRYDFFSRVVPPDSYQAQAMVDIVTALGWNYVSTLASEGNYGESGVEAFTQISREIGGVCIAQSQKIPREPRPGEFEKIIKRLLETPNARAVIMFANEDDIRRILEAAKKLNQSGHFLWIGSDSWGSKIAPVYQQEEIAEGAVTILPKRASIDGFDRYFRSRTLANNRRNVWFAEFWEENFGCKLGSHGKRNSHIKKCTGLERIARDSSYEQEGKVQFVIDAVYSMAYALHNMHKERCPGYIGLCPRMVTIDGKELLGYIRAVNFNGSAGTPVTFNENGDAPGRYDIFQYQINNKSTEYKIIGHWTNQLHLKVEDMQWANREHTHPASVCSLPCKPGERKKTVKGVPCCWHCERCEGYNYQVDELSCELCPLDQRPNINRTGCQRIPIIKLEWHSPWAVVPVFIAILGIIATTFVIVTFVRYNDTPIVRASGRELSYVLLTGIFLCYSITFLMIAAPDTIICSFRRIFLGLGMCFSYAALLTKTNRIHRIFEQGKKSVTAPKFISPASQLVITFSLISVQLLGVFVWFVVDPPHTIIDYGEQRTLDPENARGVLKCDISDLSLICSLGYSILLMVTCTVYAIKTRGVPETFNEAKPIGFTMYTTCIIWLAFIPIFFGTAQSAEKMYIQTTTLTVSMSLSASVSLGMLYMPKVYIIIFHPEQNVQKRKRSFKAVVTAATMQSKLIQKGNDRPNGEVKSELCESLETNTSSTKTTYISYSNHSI
row,SMILES,z-score
1,C=CCSc1nc(-c2ccccc2)c2cc(Cl)ccc2n1,-0.223
2,CC(C)(C)n1nnnc1C(c1cccc(C#N)c1)N1CCN2CCCC2C1 (stereo not drawn),0.0936
3,O=C1CCCc2sccc2N1,-0.164
4,COc1ccc(S(=O)(=O)N(C)CC(=O)NC2CCCCC2)cc1Cl,0.239
5,COc1ccccc1C(=O)n1nc(-c2ccc(Cl)cc2)nc1N,-0.0501
6,O=C1CC(c2ccccc2)Sc2ccccc2N1 (stereo not drawn),-0.216
7,COCCN(C(=O)Cc1cccs1)C(C(=O)NCc1ccc(OC)cc1)c1ccc(OC)cc1 (stereo not drawn),-0.202
8,c1ccc(Cn2c(Sc3nnnn3-c3ccccc3)nnc2-c2ccccc2)cc1,0.223
9,O=C1CC(Nc2ccc(N3CCOCC3)cc2)C(=O)N1c1ccccc1 (stereo not drawn),-0.264
10,CC(C)=C1SC(N2CCN(c3cccc(C)c3)CC2)=NC1=O,-0.16
11,CC(=O)Nc1ccc(NC(=S)NC(=O)c2ccc([N+](=O)[O-])c(C)c2)cc1,-0.0487
12,Cc1nc2cc(Cl)ccc2n1CCO,0.0368
13,CCOc1cc(-c2cc(-c3ccc(C)o3)nc(N)c2C#N)ccc1O,-0.365
14,O=S(Cc1ccc(Br)cc1)Cc1nnc(SCc2ccc(Cl)cc2)n1-c1ccccc1 (stereo not drawn),0.0364
15,CCCN1C(=O)c2ccccc2NC1c1ccc(OC)cc1O (stereo not drawn),-1.57
16,C1=C(CCNCC2CCCCC2)CCCC1,1.98
17,COc1cccc2c(=O)n(CC(=O)N3CCCCCC3)ccc12,-0.0875
18,CC(=O)O/N=C/c1c(N2CCOCC2)n(C)c2ccccc12,0.378
19,CCc1ccccc1OCC(=O)Nc1ccc(S(N)(=O)=O)cc1,-0.00663
20,CCCC(=O)Nc1nnc(SCC(=O)NCc2ccco2)s1,-0.312
21,CCC(Oc1ccccc1)C(=O)Nc1ccccc1OC (stereo not drawn),-0.424
22,CCOc1ccccc1NC1=CC(=O)CC(c2ccccc2)C1 (stereo not drawn),-0.395
23,O=C(c1ccccc1-c1nc(-c2ccccc2)no1)N1CCOCC1,0.0291
24,Cc1cccc(N2CCN(C(=O)CCc3nc4ccccc4[nH]3)CC2C)c1 (stereo not drawn),0.487
25,CCOC(=O)CSc1nnc(-c2cccnc2)o1,-0.323

row,SMILES,z-score
1,CSc1ccc(N2CCN(CCCNC(=O)Nc3ccccc3F)CC2)cc1,0.699
2,CS(=O)(=O)N1CCCC(C(=O)NCCc2ccccc2)C1 (stereo not drawn),-0.114
3,O=S(=O)(c1ccc2c(c1)OCCO2)N1CCN(c2nc3ccccc3s2)CC1,-0.556
4,O=C(CSc1nnc(-c2csc3c2CCCC3)o1)Nc1ccccc1,0.0102
5,COc1ccc(-c2nnc(CSc3nc4ccccc4c(=O)n3C)o2)cc1OC,-1.62
6,Cc1cc(=O)n2c3ccccc3n(CC(O)CN3CCCC3)c2c1C#N (stereo not drawn),-0.164
7,O=C(CNS(=O)(=O)c1ccc(C(=O)N2CCOCC2)cc1)N1CCOCC1,0.12
8,Cc1ccc(/C=C(/C#N)C(=O)NC(=O)Oc2ccccc2)cc1,-0.159
9,S=C(NC1CCCCC1)N1CCN(Cc2ccccc2)CC1,-0.255
10,CC(C)(C)C1(c2ccccc2)NC(=O)N(CC(=O)N2CCOCC2)C1=O (stereo not drawn),-0.13
11,COc1ccc(S(=O)(=O)N2Cc3ccccc3CC2C(=O)O)cc1 (stereo not drawn),-0.0326
12,CC(C)CCNC(=O)Cn1c(=O)oc2cc(S(=O)(=O)N3CC(C)CC(C)C3)ccc21 (stereo not drawn),-0.287
13,CC(=O)NC1CC2CCCC(C1)N2CC(=O)N1CCCc2ccccc21 (stereo not drawn),0.214
14,Cn1c(=O)n(-c2cccc(Cl)c2)c(=O)n1C,-0.242
15,NC(=S)N/N=C\c1ccc(-c2cccc(Cl)c2Cl)o1,-0.413
16,C=CCSc1nc2ccccc2n1S(=O)(=O)c1ccc(Cl)cc1,-0.0721
17,COc1cc(/C=C2\SC(=S)N(Nc3ccccc3)C2=O)cc(OC)c1OC,-0.0485
18,Cc1ccc(CNC(=O)C2CCN(S(=O)(=O)c3c(C)noc3C)CC2)cc1,0.615
19,CCCCCC(=O)N1CCN(CCN=CC2=C(O)CC(c3ccco3)CC2=O)CC1 (stereo not drawn),-0.0293
20,CCc1cc(=O)oc2c(C)c(O)c(CN3CCCCC3)cc12,1.3
21,CCNC(=S)NNC(=O)c1cccn(Cc2ccc(Cl)cc2Cl)c1=O,-0.0504
22,O=[N+]([O-])c1ccc(CSc2nc3ccccc3[nH]2)cc1,-0.23
23,CC(=O)Nc1ccc(N2C(=O)CC(N3CCN(Cc4ccc5c(c4)OCO5)CC3)C2=O)cc1 (stereo not drawn),0.0868
24,CCC(=O)Nc1cc(OC)c(NC(=O)c2ccccc2)cc1OC,0.0667
25,Cc1cccc(OCCCC(=O)O)c1C,1.14

row,SMILES,z-score
1,COc1ccccc1CC(=O)Nc1ccc(O)cc1C(=O)O,0.65
2,O=C(/C=C/c1cccs1)Nc1nc(-c2ccccc2)cs1,-1.32
3,COc1ccc(C(=O)NCc2ccccc2)cc1Br,-0.234
4,O=C(O)c1ccc(-n2nnnc2Oc2ccccc2C(=O)N2CCOCC2)cc1,-0.285
5,Cc1cccc(NC(=S)N2CCC(C(=O)c3ccc(F)cc3)CC2)c1C,active: 5.76
6,CCOC(=O)c1cc(OC(=O)c2cccc([N+](=O)[O-])c2)n(-c2ccccc2)n1,-0.0578
7,CC1=C(C#N)C(c2ccoc2)C(C(=O)OCc2ccccc2)=C(N)S1 (stereo not drawn),-0.776
8,Cc1ccccc1C(=O)NNC(=O)c1cc(N)cc([N+](=O)[O-])c1,-0.0123
9,O=C(Nc1cnn(Cc2ccccc2)c1)c1nc2ncccn2n1,-0.222
10,Clc1ccc(/C=N/Nc2nc(Cl)nc3ccccc23)cc1,2.24
11,CCCCNCc1cc(OCC)c(OCC(N)=O)cc1Br,0.733
12,COc1ccc(NC(=O)C2CC(=O)N(c3cc(C)ccc3C)C2)cc1 (stereo not drawn),-0.107
13,O=C(Cc1ccc(-n2c(=O)c3ccccc3n(Cc3ccccc3F)c2=O)cc1)NCC1CCCO1 (stereo not drawn),-0.549
14,O=C(Nc1ccccc1C(=O)NCCCn1ccnc1)c1ccccc1,1.54
15,CCNC(=O)CN(C1CCCCC1)S(C)(=O)=O,0.778
16,Cc1ccc2cccc(S(=O)(=O)Nc3c(C)n(C)n(-c4ccccc4)c3=O)c2n1,-0.0715
17,Cc1cc(C(F)(F)F)nc(SCC(=O)c2cccc([N+](=O)[O-])c2)n1,-0.0876
18,COc1ccc(NCc2ccc(OC)c(OC)c2)cc1,0.641
19,Cc1ccc(C(=O)N[C@H](C(=O)Nc2cc(Cl)cc(Cl)c2)C(C)C)cc1,-0.228
20,Cc1c(C)n(C(=O)CN2CCC(C)CC2)c2ccccc12,-0.157
21,CC(C)n1cc(-c2ccc(Cl)cc2)cc(C#N)c1=O,-0.0353
22,Cn1c(=O)[nH]c(Nc2ccc(F)cc2)c([N+](=O)[O-])c1=O,-0.196
23,COc1ccc(COC(=O)Nc2cc3c(C(F)(F)F)nn(C)c3s2)cc1,-0.456
